# Measured values from PubChem BioAssay AID1508642 (National Center for Advancing Translational Sciences (NCATS), 2021).
# About 200 (0.47%) of roughly 43,000 compounds were called active. Inconclusive results (about 12%) are left out. The call rests on the fitted dose curve; in most records, active means well fitted cell-killing curve with a large enough effect; inconclusive means small, poorly fitted or top-dose-only effect, or effect the other way; inactive means flat fitted curve, though single readings scatter. This is one part of the list.
# Assay: Cell viability qHTS assay in S16 Pmp22-F2sN cells; further: nearly all actives have a fitted effect of over 65% in size
# Settings: S16 Pmp22-F2sN Schwann cells (luciferase reporters placed in the Pmp22 gene) viability, CellTiter-Glo, 24 h; series mostly up to 57.5 µM; activity change, negative = cytotoxicity: at the top concentration
# Summary of the method: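 S16 Schwann cells carrying the Pmp22-F2sN reporter, seeded in 1536-well format, were exposed to library compounds for 24 h at 37C. Viability was read as CellTiter-Glo luminescence after 15 min at room temperature.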
# On the % scale 0 is the no-effect control and ±100 the full control effect.
row,SMILES,"activity change, negative = cytotoxicity"
1,O=C(COc1ccc(F)cc1)Nc1ccc2nc(SCC(=O)N3CCOCC3)sc2c1,inactive: -3.08%
2,CC(C)c1ccc(N2C(=O)CSC23C(=O)N(C)c2ccccc23)cc1 (stereo unspecified),inactive: 27.8%
3,O=C1[C@@H]2CSC(c3ccc(Cl)cc3)N2C(=O)N1c1ccccc1 (stereo partly specified),inactive: 4.29%
4,COc1ccc(C2=NC(c3ccncc3)=Nc3ccc(OC)cc3N2)cc1,inactive: -24.7%
5,COc1ccc(-c2noc(N3CCC(C(=O)N4CCN(c5cccc(C)c5C)CC4)CC3)n2)cc1,inactive: 8.52%
6,COc1ccc(C2=C(C)C(=O)N(Cc3ccc(C(=O)NCc4cccc(C)c4)cc3)S2(=O)=O)cc1,inactive: -9.01%
7,COc1ccc2c(c1)c(N1CCCC1=O)c(C(=O)Nc1ccccc1C(F)(F)F)n2C,inactive: 8.68%
8,CCOc1ccc(NC(=O)CCNS(=O)(=O)c2cccc3nonc23)cc1,inactive: 8.1%
9,CCc1ccc(NC(=O)Cn2c(=O)n(Cc3ccco3)c(=O)c3oc4ccccc4c32)cc1,inactive: 2.72%
10,CC(C)c1ccc(NC(=O)CN2C(=O)COc3ccc(S(=O)(=O)N4CCCCCC4)cc32)cc1,inactive: 2.3%
11,O=C(NCc1cccs1)c1ccc(CSc2nc3cccnc3n2Cc2ccccc2F)cc1,inactive: 1.29%
12,CCOC(=O)c1c(NC(=O)c2cc(-c3cccc(OC)c3)on2)sc2c1CCCC2,inactive: -3.75%
13,COc1cccc(CNC(=O)Cc2c(C(=O)O)c(C)cn2C)c1,inactive: 3.87%
14,COc1ccc(CC(=O)NCC(c2cccs2)S(=O)(=O)c2ccc(C)cc2)cc1 (stereo unspecified),inactive: 9.53%
15,COc1ccc(S(=O)(=O)Nc2c(C)nc3nc(C)[nH]n3c2=O)cc1,inactive: -3.96%
16,CCN(CC)C(=O)c1ccc(Nc2nnc(-c3ccc(C)c(S(=O)(=O)NC)c3)c3ccccc23)cc1,inactive: -16%
17,CCc1cccc(N2C(=O)CSC23C(=O)Nc2ccccc23)c1 (stereo unspecified),inactive: -6.18%
18,Cc1oc(-c2ccccc2Cl)nc1CSc1nc2ncccc2[nH]1,inactive: 13.8%
19,Cc1cc(C)c(NC(=O)Cn2cnc3c(oc4ccccc43)c2=O)c(C)c1,inactive: 3.4%
20,COc1ccccc1N1CCN(c2ncnc3onc(-c4cccc(Cl)c4)c23)CC1,inactive: 9.16%
21,O=C(NCc1cccc(Cl)c1)c1ccc2nc(N3CCCCC3)sc2c1,inactive: -2.34%
22,CCOC(=O)c1c(C)n(-c2ccccc2)c2ccc(OC(=O)c3cccc(OC)c3OC)cc12,inactive: 14.8%
23,CCOC(=O)c1c(-c2ccc(C)cc2)csc1NC(=O)c1cc(=O)c2ccc(C)cc2o1,inactive: -11.5%
24,CSc1cccc(Nc2cc(C(=O)NCCCN(C)c3ccccc3)c3ccccc3n2)c1,inactive: 4.89%

row,SMILES,"activity change, negative = cytotoxicity"
1,COc1ccc(/C=C/C(=O)Nc2nc3n(n2)C(c2ccc(F)cc2)C=C(c2ccccc2)N3)cc1 (stereo unspecified),inactive: -8.87%
2,COc1ccc(NC(=O)C2CCCN(S(=O)(=O)c3ccc(Br)s3)C2)cc1 (stereo unspecified),inactive: -18.8%
3,CC(=O)N1CCc2cc(S(=O)(=O)NC(C(=O)Nc3ccc(C)cc3C)C(C)C)ccc21 (stereo unspecified),inactive: -1.66%
4,COc1cccc(C(=O)Nc2c(C(=O)N3CCN(c4ccc(F)cc4)CC3)oc3ccccc23)c1,inactive: 0.393%
5,CCc1ccc(CNC(=O)c2c(C)oc3ncnc(N4CCOCC4)c23)cc1,inactive: -11.8%
6,COc1cc2ccccc2cc1C(=O)Nc1ccc2oc(-c3ccc(F)cc3Cl)nc2c1,inactive: 1.91%
7,CCOc1ccc(C(=O)c2oc3ccccc3c2NC(=O)Cc2coc3ccc(CC)cc23)cc1,inactive: -8.31%
8,O=C(Cc1ccc(F)cc1)Nc1nnc2n1CCS2,inactive: -1.42%
9,Cc1cccc(NC(=O)N2CCC3(CC2)Oc2ccccc2C(=O)N3Cc2ccccc2F)c1C,inactive: -7.07%
10,O=C(NCCn1ccc2ccccc21)c1ccc(Cl)cc1,inactive: 26.6%
11,COc1ccccc1NC(=O)CSc1nc(-c2ccc(C(C)(C)C)cc2)c(C#N)c(=O)[nH]1,inactive: -7.19%
12,CCOc1ccccc1-n1nnc(-c2nsc(NC(=O)c3ccc(C)cc3)n2)c1C,inactive: -21.5%
13,CCc1ccccc1OCC(=O)Nc1ccc(S(=O)(=O)Nc2nc(C)cc(C)n2)cc1,inactive: 1.59%
14,CCc1cccc(-n2c(=O)c3cccnc3n2CC(=O)Nc2ccc(F)c(C)c2)c1,inactive: -7.1%
15,CCc1ccc2occ(CC(=O)Nc3ccccc3C(F)(F)F)c2c1,inactive: -2.7%
16,CC(C)c1ccc(Nc2cc(C(=O)NC3CCCCC3)c3ccccc3n2)cc1,inactive: 13.7%
17,Cn1c(C(=O)Nc2cccc(C(F)(F)F)c2)cc2c(=O)n3ccccc3nc21,inactive: 5.26%
18,CC1=C(c2ccc(C)c(C)c2)S(=O)(=O)N=C1N1CCC(C(=O)N2CCC(C)CC2)CC1,inactive: -3.68%
19,CCOc1cc(/C=C(\C#N)C(=O)NCC2CCCO2)ccc1O (stereo unspecified),inactive: 15.1%
20,CCOc1ccc(NC(=O)C2CCC(CNS(=O)(=O)c3ccc(Br)s3)CC2)cc1 (stereo unspecified),inactive: 0.862%
21,COc1ccc(OC)c(CNC(=O)C(C)n2c(C)c3cnn(-c4ccccc4)c(=O)c3c2C)c1 (stereo unspecified),inactive: 8.62%
22,CNc1ncnc2c1cnn2-c1ccc(C)c(C)c1,inactive: 3.52%
23,Cc1ccccc1CNC(=O)CCCn1c(=O)c2cccn2c2cccnc21,inactive: 11.8%
24,Oc1ccccc1-c1nc(/C=C/c2ccccc2Cl)nn1-c1ccccc1,inactive: 28.2%

row,SMILES,"activity change, negative = cytotoxicity"
1,Cc1ccc(N2CC(NC(=O)c3cccs3)CC2=O)cc1C (stereo unspecified),inactive: -2.61%
2,Cc1cccc(NC(=O)c2ccc(-n3cnc4cccnc43)cc2)c1C,inactive: -2.37%
3,COC(=O)c1cc2sc(C)cc2n1Cc1cccc(OC)c1,inactive: -4.84%
4,COc1ccc(C2Nc3ccccc3-c3cc(C)nn32)cc1OC (stereo unspecified),inactive: 0.136%
5,O=c1cc(-c2ccccc2)nc(SCc2nc(-c3ccccc3Cl)no2)[nH]1,inactive: 14.1%
6,CCOc1cc(C(=O)Nc2cc3c(cc2N2CCOCC2)n(C)c(=O)n3C)cc(OCC)c1OCC,inactive: 2.76%
7,CCOC(=O)c1c(-c2ccc(OC)cc2)oc2ccc(OCc3ccccc3C)cc12,inactive: 4.77%
8,CCOC(=O)c1c(C)[nH]c(C)c1S(=O)(=O)N1CCCC(C(=O)NCc2cccc(C)c2)C1 (stereo unspecified),inactive: -0.485%
9,Cc1cccn2c(=O)c(C(=O)NCc3ccc(F)cc3)c(O)nc12,inactive: 21.3%
10,COc1ccc(-c2nc3ccc(NS(=O)(=O)c4ccc(C)cc4)cc3o2)cc1,inactive: -14.6%
11,CCCOc1cccc(C(=O)Nc2cccc3cccnc23)c1,inactive: 8.42%
12,CCN(C(=O)c1nn(-c2ccc(OC)c(Cl)c2)c(=O)c2c1c1ccccc1n2C)c1cccc(C(F)(F)F)c1,inactive: 1.26%
13,O=C(CN1C(=O)COc2ccc(Cl)cc21)Nc1ccc(F)cc1,inactive: 8.54%
14,O=C(CCC(=O)N1CC2CCCN2c2ccccc21)NCc1ccc(Cl)cc1 (stereo unspecified),inactive: -0.329%
15,CCC1CCC(C(=O)NC(C(=O)Nc2cccc(OC)c2)C(C)C)CC1 (stereo unspecified),inactive: -2.35%
16,CCOc1ccc(CNCc2c(C(=O)O)c(C)n(Cc3cccc(OC)c3)c2C)cc1OC,inactive: 8.45%
17,Cc1cccc(NC(=O)CSc2nnc3[nH]c(=O)cc(-c4ccccc4)n23)c1C,inactive: -18.3%
18,Cc1cc(CN2CCN(c3ccccc3F)CC2)cs1,inactive: 0.139%
19,Cc1ccc(Cn2c(C(=O)NCc3ccccc3Cl)cc3sccc32)cc1,inactive: 17.4%
20,CCC1=C(c2ccc(C)cc2)S(=O)(=O)N=C1N1CCC(C(=O)Nc2ccccc2F)CC1,inactive: 1.57%
21,Cc1ccc(NC(=O)Cn2ncn3c(cc4ccccc43)c2=O)cc1F,inactive: -3.23%
22,Cc1nc2sccn2c(=O)c1S(=O)(=O)Nc1ccc(N2CCOCC2)c(Cl)c1,inactive: -16.5%
23,COc1ccc(OC)c(NC(=O)CN(C)S(=O)(=O)c2ccc3[nH]c4c(c3c2)CCCC4)c1,inactive: -12.8%
24,CCC(=O)N1CCc2cc(S(=O)(=O)CCC(=O)N3CCN(c4cc(C)ccc4C)CC3)ccc21,inactive: 13.8%

row,SMILES,"activity change, negative = cytotoxicity"
1,COc1cccc(NC(=O)CSc2nc3ccccc3n2C)c1,inactive: 0.409%
2,CCOc1ccc(NC(=O)c2c(NCc3ccc(C)o3)sc3c2CCC(C)C3)cc1 (stereo unspecified),inactive: 4.19%
3,Cc1nnc(N2CCC(C(=O)NC3CCCCC3)CC2)c2nn(-c3ccc(Cl)cc3)c(C)c12,inactive: -2.29%
4,CCOc1ccc(C(=O)NCC(c2ccc3c(c2)OCO3)N2CCN(c3ccccc3F)CC2)cc1 (stereo unspecified),inactive: -14.2%
5,COc1ccc(OC)c(CCNC(=O)c2c(C)nn(-c3ccc(F)cc3)c2-n2cccc2)c1,inactive: -2.28%
6,COc1ccc(Cn2nnc(C(=O)Nc3cc(OC)ccc3OC)c2N)cc1,inactive: -17.5%
7,COCCCNC(=O)C1CCN(Cc2nc(-c3ccc(OC)c(OC)c3)oc2C)CC1,inactive: 15.3%
8,Cc1ccc(NC(=O)Cn2c(=O)n(Cc3ccco3)c(=O)c3ccc(C(=O)NC4CCCC4)cc32)c(C)c1,inactive: 5.27%
9,Cc1ccc(C)c(CN2C(=O)c3ccccc3S(=O)(=O)c3ccc(C(=O)N4CCN(c5ccccn5)CC4)cc32)c1,inactive: -17.5%
10,COc1cc(NC(=O)CN2C(=O)COc3ccc(S(=O)(=O)N4CCCCC4)cc32)cc(OC)c1,inactive: 4.01%
11,CCc1cccc(N2C(=O)N(CC(=O)NCc3cccc(OC)c3OC)c3ccccc3S2(=O)=O)c1,inactive: 14.3%
12,CCCN1C(=O)C(Cc2nc3ccccc3c(=O)n2-c2ccccc2)c2cc(C)ccc21 (stereo unspecified),inactive: -23.3%
13,COc1ccc(C)cc1Nc1nc2cc(Cl)c(Cl)cc2nc1-n1nc(C)cc1C,inactive: -5.16%
14,C=Cc1ccc(CN2C(=O)N(c3ccc(CC)cc3)S(=O)(=O)c3ccccc32)cc1,inactive: 13.7%
15,COc1ccc(C)cc1NC(=O)CSc1nc(=O)n(Cc2ccncc2)c2c1CCC2,inactive: -19.1%
16,COc1ccc(C)cc1NC(=O)NCc1ccc2c(c1)CCN2C(=O)c1ccccc1,inactive: -23.8%
17,Cc1ccc(NC(=O)Cn2c(=O)n(-c3ccccc3)c(=O)c3c4c(sc32)CCCC4)cc1,inactive: 24.2%
18,O=C(CSc1ncc2c(n1)-c1ccccc1N(Cc1ccccc1)S2(=O)=O)Nc1ccccc1,inactive: 0.231%
19,COCCNC(=O)c1ccc(CSc2nc3ccncc3n2Cc2ccccc2)cc1,inactive: 5.84%
20,COC(=O)c1ccc(OCC2c3cc(OC)c(OC)cc3CCN2C(=O)C(C)C)cc1 (stereo unspecified),inactive: -11.2%
21,CCOC(=O)COc1ccc(C)cc1C(=O)c1ccn2nc(-c3ccc(C)cc3)cc2n1,inactive: 14.3%
22,Cc1ccc2c(c1)NC(=O)C(CC(=O)Nc1ccccc1Cl)O2 (stereo unspecified),inactive: 17.8%
23,Cc1ccc(Nc2nnc(-c3ccc(C)c(S(=O)(=O)N4CCOCC4)c3)c3ccccc23)c(C)c1,inactive: 0.717%
24,CCOc1ccc(C(=O)c2cn(Cc3ccc(Cl)cc3)c3cc(OC)c(OC)cc3c2=O)cc1,inactive: -26.2%
